Out of some 54,000 compounds screened, about 120 (0.22%) were called active. The inconclusive results got no clear call from the source; some entries with a clear call stand among them for comparison. Calls come from the whole dose curve; as a rule, active = well fitted inhibition curve with a large enough effect; inconclusive = small, poorly fitted or top-dose-only effect, or effect the other way; inactive = flat fitted curve, though single readings scatter. No potency is given beside an inconclusive call; the fits are too rough.
Target: Fumarate hydratase, mitochondrial (Homo sapiens) (UniProt P07954)
Assay: Identification of activators of human fumarate hydratase by quantitative high-throughput screening; note: the screen sought activators but most active calls are inhibition curves; nearly all actives have a fitted effect of over 45% in size
Settings: FH coupled MDH/diaphorase resazurin fluorescence, 15 min; activity change, negative = inhibition: at 79.9 µM (top of the series)
Description: Fumarate hydratase (FH) is a metabolic enzyme that is part of the Krebs-cycle, and reversibly catalyzes the hydration of fumarate to malate. Mutations of the FH gene have been associated with fumarate hydratase deficiency (FHD), hereditary leiomyomatosis, renal cell cancer (HLRCC), and other diseases. Currently there are no high-quality small molecule probes for studying human fumarate hydratase. To address this, we developed a quantitative high throughput screening (qHTS) FH assay and screened a total of 57,037 compounds in dose-response. While no inhibitors of FH were confirmed, a series of phenyl-pyrrolo-pyrimidine-diones (12 compounds) were identified as activators of human fumarate hydratase. […] The binding of two compounds from the series to human fumarate hydratase was confirmed by microscale thermophoresis. The low hit rate in this screening campaign confirmed that FH is a "tough target" to modulate, and the small molecule activators of human fumarate hydratase reported here may serve as a starting point for further optimization and development into cellular probes of human FH and potential drug candidates.
For primary high-throughput screen, 3 ul of FH solution (containing 13.33nM human fumarate hydratase, 13.33IU/ml malic dehydrogenase, 0.2mM NAD, 0.067mg/ml diaphorase and 0.067mM resazurin in the assay buffer (50 mM Tris pH 8.0, 5 mM MgCl2, 0.01% Brij 3) was dispensed into each well in a black solid bottom 1536-well assay plate (Greiner Bio-One) using a BioRAPTR FRD dispenser (Beckman Coulter, Brea, CA). A 1536-well pintool dispenser outfitted with 20 nl pins (Wako Automation, San Diego, CA) was used to transfer 20 nL of DMSO-solubilized compound (Cherrypick plates) to each 1536-well assay plate. Each compound was screened at five concentrations: 15 nM, 151 nM, 1.5 uM, 15.4 uM, 76.9 uM. Following compound transfer, plates were incubated in room temperature for 10 minutes. 1 uL of substrate solution containing fumaric acid (160 uM) was dispensed via BioRAPTR FRD to initiate the reaction. Plates were immediately transferred to a ViewLux microplate imager (PerkinElmer, Waltham, MA), and any resulting resorufin fluorescence was measured (exitation/emission, 525/598 nm) at 0 and 15 minutes. The exposure time is 1 second. Fluorescence from each well was normalized using enzyme-free and DMSO-treated control wells on each plate, and changes in fluorescence (delta RFU) were calculated using the difference in fluorescent signal for each well at 15 minutes versus 0 minutes.
% is set by controls: 0 for no effect and ±100 for the full control effect; potency is the fitted concentration of half-maximal effect; tags give direction and shape of the fitted curve.

UniProt P07954, sequence (P07954 whole entry, looked up): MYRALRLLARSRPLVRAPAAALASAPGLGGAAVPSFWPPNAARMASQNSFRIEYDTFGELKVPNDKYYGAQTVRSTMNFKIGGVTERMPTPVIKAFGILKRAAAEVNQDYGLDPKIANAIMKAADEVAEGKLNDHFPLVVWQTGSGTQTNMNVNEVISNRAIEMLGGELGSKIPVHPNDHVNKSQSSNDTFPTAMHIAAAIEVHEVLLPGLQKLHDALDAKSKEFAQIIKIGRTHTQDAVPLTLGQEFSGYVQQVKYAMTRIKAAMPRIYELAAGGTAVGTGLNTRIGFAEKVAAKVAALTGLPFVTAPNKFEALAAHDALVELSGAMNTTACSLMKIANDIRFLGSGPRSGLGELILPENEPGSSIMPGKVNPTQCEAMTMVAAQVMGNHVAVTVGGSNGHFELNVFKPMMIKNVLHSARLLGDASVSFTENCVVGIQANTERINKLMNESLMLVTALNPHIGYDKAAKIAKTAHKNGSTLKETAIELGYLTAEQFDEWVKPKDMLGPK

Q: Which Potency does the source give for `Cc1ccc(CNC(=O)c2cc(=O)c3cc(C)ccc3o2)cc1` here?
A: inconclusive [inhibitor, single point]

Q: Which Potency does the source give for `CCn1cc2nc(SCc3ccccc3Cl)n(Cc3ccc(OC)cc3)c(=O)c2n1` here?
A: inconclusive [inhibitor, partial curve, poor fit]

Q: How did the Potency turn out when `COc1ccc(C(Nc2ccccn2)c2ccc3ccc(C)nc3c2O)cc1C` (centres undefined) was run?
A: inactive

Q: How did the Potency turn out when `CCCN(CCC)CCCNC(=O)c1cc2c(=O)n(C)c3ccccc3c2s1` was run?
A: inconclusive [inhibitor, partial curve, poor fit]

Q: `Cc1ccc(NC(=O)C2CCN(S(=O)(=O)c3cccc4nsnc34)CC2)cc1F` was tested. Which Potency did it give?
A: inactive

Q: How did the Potency turn out when `Cc1noc(C)c1S(=O)(=O)N(CC(=O)Nc1ccc(F)cc1F)c1ccc(C(C)C)cc1` was run?
A: inconclusive [inhibitor, partial curve, poor fit]

Q: How did the Potency turn out when `CCCNC(=O)c1ccc2c(c1)nc1n2CCCCC1` was run?
A: inactive

Q: `CCCCOC(=O)NC(=O)C1c2ccccc2Oc2ccccc21` was tested. Which Potency did it give?
A: inactive

Q: With `COc1c(C(C)C)c(O)c(O)c2c1C(OC)[C@H]1OC(=O)[C@@]23CCCC(C)(C)[C@H]13` (some centres undefined) as the compound, how does the Potency read?
A: active: 13.2 µM

Q: For `COc1ccc(-c2nc3sc(CCNC(=O)c4ccc(Br)o4)c(C)n3n2)cc1`, which Potency is on record?
A: inconclusive [inhibitor, partial curve]

Q: `Cc1nc(-c2ccc(F)cc2)sc1CCNC(=O)Cc1ccc(F)cc1` was tested. Which Potency did it give?
A: inactive

Q: With `CCOC(=O)c1cc2c(=O)n3ccccc3nc2n(C(C)C)c1=NC(=O)C(C)(C)Oc1ccc(Cl)cc1` as the compound, how does the Potency read?
A: inconclusive [inhibitor, partial curve]

Q: How did the activity change, negative = inhibition turn out when `CC[C@@H](C)[C@H](NC(=O)C(C)(C)NC(=O)[C@H](CCC(N)=O)NC(=O)C(C)(CC)NC(=O)[C@H](Cc1c[nH]c2ccccc12)NC(C)=O)C(=O)N[C@H](C(=O)NC(C)(C)C(=O)N[C@@H](CC(C)C)C(=O)NC(C)(C)C(=O)N1CCC[C@H]1C(=O)N[C@@H](CCC(N)=O)C(=O)NC(C)(C)C(=O)N1CC(O)C[C@H]1C(=O)NC(C)(CC)C(=O)C1CC[C@@H](C(=O)N[C@@H](Cc2ccccc2)C(=O)NCC(=O)O)N1)C(C)O` (some centres undefined) was run?
A: inactive: -11.6% [at 13.5 µM]

Q: With `CCOC(=O)c1ccc(NC(=O)CSc2nc3c(c(=O)[nH]2)CN(Cc2ccccc2)CC3)cc1` as the compound, how does the Potency read?
A: inconclusive [inhibitor, single point]

Q: Which Potency does the source give for `O=C(NCCc1ccccc1)c1ccc2c(c1)N(Cc1ccc(F)cc1)C(=O)CS2` here?
A: inconclusive [inhibitor, single point]

Q: How did the Potency turn out when `CC(C)Cn1cc(NC(=O)NCc2cccc(Cl)c2)c2ccccc2c1=O` was run?
A: inconclusive [activator, single point]

Q: For `C#CCOc1ccc2c(c1)c(-c1ccc(C(C)C)cc1)nc(=O)n2C(C)C`, which Potency is on record?
A: inconclusive [inhibitor, single point]

Q: For `COc1cc2nc(N3CCCC3)nc(NCCCCCN3CCCC3)c2cc1OC`, which Potency is on record?
A: inactive

Q: With `Cc1ccc(Cn2c(CCNC(=O)c3cccc(C)c3)nc3ccccc32)cc1` as the compound, how does the Potency read?
A: inconclusive [inhibitor, single point]

Q: With `Cc1ccc(S(=O)(=O)N2CCN(Cc3ccccc3Cl)CC2)cc1` as the compound, how does the Potency read?
A: inconclusive [inhibitor, partial curve]

Q: With `Cc1ccc(Cn2c(C(=O)O)c(CNCc3ccc(C)o3)c3ccc(C)cc32)cc1` as the compound, how does the Potency read?
A: inconclusive [inhibitor, partial curve, poor fit]

Q: `Cc1cc2oc(C(=O)Nc3sc4c(c3C(=O)NCc3ccco3)CCC4)cc(=O)c2cc1C` was tested. Which Potency did it give?
A: inconclusive [inhibitor, partial curve, poor fit]

Q: With `CCC(=O)c1ccc2c(c1)N(CCCN(C)C)c1ccccc1S2` as the compound, how does the Potency read?
A: inconclusive [inhibitor, partial curve, poor fit]

Q: Which Potency does the source give for `O=C(Nc1ccc(C(F)(F)F)cc1)c1cc(S(=O)(=O)NC2CCCCCC2)ccc1F` here?
A: inconclusive [inhibitor, partial curve]

Q: How did the Potency turn out when `Nc1ccc(-c2ccc3ncc4ccc(=O)n(-c5cccc(C(F)(F)F)c5)c4c3c2)cn1` was run?
A: inconclusive [inhibitor, partial curve]

Q: For `CCCCN1CC(c2nc3ccccc3n2CCCCOc2ccccc2C)CC1=O` (centres undefined), which Potency is on record?
A: inconclusive [inhibitor, partial curve, poor fit]

Q: `O=C(c1ccc2c(c1)N(Cc1ccc(Cl)cc1)C(=O)c1ccccc1S2(=O)=O)N1CCCCCC1` was tested. Which Potency did it give?
A: inconclusive [inhibitor, partial curve]

Q: For `CC1CCC2C(C)(C)[C@H](O)CC[C@]2(C)C12Cc1c(O)cc3c(c1O2)CN(C(CCC(=O)O)C(=O)O)C3=O` (some centres undefined), which Potency is on record?
A: inactive

Q: With `Cc1cc(C)c(S(=O)(=O)Nc2ccc3oc4c(c3c2)CCCC4)cc1C` as the compound, how does the Potency read?
A: inconclusive [inhibitor, single point]

Q: How did the Potency turn out when `COc1ccc(C2C=C(c3ccccc3)Nc3nc(NS(=O)(=O)c4ccccc4)nn32)cc1` (centres undefined) was run?
A: inconclusive [inhibitor, single point]

Q: `Cc1cnc(-c2ccccc2C(C)C)nc1NCc1ccc(-n2ccnn2)cc1` was tested. Which Potency did it give?
A: inactive

Q: With `Clc1cccc(-n2ncc3c(NC4CCCCC4)ncnc32)c1` as the compound, how does the Potency read?
A: inconclusive [inhibitor, partial curve, poor fit]

Q: Which Potency does the source give for `CC(C)(C)OC(=O)N1CCC(c2c(C(=O)NCCN3CCC(Cc4ccccc4)CC3)cnn2-c2cccc(Cl)c2)CC1` here?
A: inconclusive [inhibitor, partial curve, poor fit]

Q: Which Potency does the source give for `Cc1cccc(N2CCN(C(=O)c3cc(S(=O)(=O)N4CCC(C)CC4)cn3C)CC2)c1C` here?
A: inconclusive [inhibitor, single point]

Q: Which Potency does the source give for `CCOC(=O)c1[nH]c2ccccc2c1NC(=O)c1ccccc1OCC` here?
A: inconclusive [inhibitor, single point]

Q: Which Potency does the source give for `Cc1ccc(S(=O)(=O)N(CC(=O)Nc2ccc(C(C)C)cc2)Cc2ccccc2)cc1` here?
A: inconclusive [inhibitor, single point]

Q: Which Potency does the source give for `COc1cc2c(Nc3cc(F)c(Cl)c(Cl)c3)ncnc2cc1OCC1CCCN(C)CCC1` here?
A: inactive

Q: For `CCC(C)c1ccc(OCC(=O)Nc2cccc(-c3nc4ncccc4o3)c2)cc1` (centres undefined), which Potency is on record?
A: inconclusive [inhibitor, full curve, poor fit]

Q: How did the Potency turn out when `COCCCNC(=O)Cn1c(=O)n(Cc2ccc(C(=O)NCc3ccc(C)cc3)cc2)c(=O)c2ccccc21` was run?
A: inactive

Q: With `COc1ccccc1CNS(=O)(=O)c1ccc2[nH]c3c(c2c1)CCCCC3` as the compound, how does the Potency read?
A: inconclusive [inhibitor, single point]

Q: `COc1cc(-c2nc(SCC(=O)Nc3ccc4c(c3)OCO4)c(-c3ccccc3)[nH]2)cc(OC)c1OC` was tested. Which Potency did it give?
A: inconclusive [inhibitor, single point]

Q: How did the Potency turn out when `CC(=O)O/N=C1/C(c2c(O)[nH]c3cc(Br)ccc23)=Nc2ccccc21` was run?
A: inactive

Q: How did the Potency turn out when `COc1cccc(-c2cc(C(F)(F)F)nc(NCCc3ccc(OC)c(OC)c3)n2)c1` was run?
A: inconclusive [inhibitor, partial curve]

Q: Which Potency does the source give for `COc1ccccc1C(=O)Nc1nc2n(n1)C(c1ccc(F)cc1)C=C(c1ccc(Cl)cc1)N2` (centres undefined) here?
A: inactive

Q: Which Potency does the source give for `C=CC1C(OC2OC(CO)C(O)C(O)C2O)OC=C2C(=O)N3C(C(=O)O)Cc4c([nH]c5ccccc45)C3CC21` (centres undefined) here?
A: inactive

Q: `CCCCOC(=O)c1c(C)oc2c1cc(NS(=O)(=O)c1cc(OC)ccc1OC)c1ccccc12` was tested. Which Potency did it give?
A: inconclusive [inhibitor, partial curve, poor fit]

Q: Which Potency does the source give for `COc1cccc(Cn2cc(C(=O)c3ccc(Cl)cc3)c(=O)c3ccccc32)c1` here?
A: inconclusive [inhibitor, single point]

Q: For `Cc1ccccc1Nc1c(-c2ccc(N3CCOCC3)cc2)nc2ccc(Br)cn12`, which Potency is on record?
A: inconclusive [inhibitor, partial curve, poor fit]

Q: With `Cc1cc2[nH]c(=O)c(=O)[nH]c2cc1S(=O)(=O)N1CCN(c2cccc(Cl)c2)CC1` as the compound, how does the Potency read?
A: inconclusive [inhibitor, partial curve, poor fit]

Q: For `CCc1c(C)sc2c1CCN(Cc1ccccc1F)C2c1ccccc1` (centres undefined), which Potency is on record?
A: inactive

Q: For `COc1ccc(NC2=C(c3ccc(C(F)(F)F)cc3)C(=O)c3ccccc32)cc1`, which Potency is on record?
A: inconclusive [activator, single point]

Q: `CN1CCC(Nc2nc(Nc3ccc(Oc4ccccc4)cc3)c3c(=O)[nH]cc(Br)c3n2)CC1` was tested. Which Potency did it give?
A: inactive

Q: For `O=C(CSc1nc(-c2cccc(F)c2)[nH]c1-c1ccccc1)Nc1ccc2c(c1)OCO2`, which Potency is on record?
A: inconclusive [inhibitor, single point]

Q: With `CCc1ccccc1N(C)C(=O)C1CCCN(c2ncnc3c2nc2n3CCCCC2)C1` (centres undefined) as the compound, how does the Potency read?
A: inconclusive [inhibitor, single point]

Q: For `Cc1ccc(-c2nn3c(C)nnc3c3ccccc23)cc1S(=O)(=O)NCC(C)O` (centres undefined), which Potency is on record?
A: inconclusive [inhibitor, single point]

Q: `Cc1ccccc1OCc1ccc(-c2nc(C#N)c(N3CCN(c4cccc(Cl)c4)CC3)o2)o1` was tested. Which Potency did it give?
A: inconclusive [inhibitor, single point]

Q: With `CCOc1ccc(CCNC(=O)c2cc3c(-c4ccccc4F)nn(C)c3s2)cc1` as the compound, how does the Potency read?
A: inconclusive [inhibitor, partial curve]

Q: How did the Potency turn out when `COc1cccc(C(=O)NCCc2csc3nc(-c4ccccc4F)nn23)c1OC` was run?
A: inactive

Q: With `CCOC(=O)c1cc(-c2ccc(OC)cc2)n(CCC(=O)NCCc2ccccc2)c1C` as the compound, how does the Potency read?
A: inconclusive [inhibitor, single point]

— PubChem BioAssay AID1347055 (National Center for Advancing Translational Sciences (NCATS), 2019)
